89 sequences from the supplement of paper PMC11417369 can be followed below.

Some of the results follow.

For this experiment, the system named is PF3D7_0420300 AP2 domain 1 (GST-tagged). Nature of the experiment: gcPBM binding intensity (ln(normalized median fluorescence intensity)); higher = stronger DNA binding. In a few lines: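 GST-tagged P. falciparum DNA-binding domains, expressed in E. coli (about 25 μg on average), were applied for 1 h to an Agilent 4 × 180k array of primer-extended double-stranded 36-bp intergenic genomic probes plus negative controls. The binding buffer was 1× PBS with 1% milk, 0.2 mg/ml BSA, 0.5% salmon testes DNA and 0.03% Triton X-100. Bound protein was detected with Alexa488 anti-GST antibody and scanned at 488 nm. Binding intensity is the highest Masliner-normalised natural-log median intensity across replicate spots of either probe orientation.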
In the case of “TTATTTATCAAAAAATGTACAAAAATATATAAACAA [XGTACX_site940]”, the “gcPBM binding intensity (ln)” value was 9.19.
Regarding CTTTTCTATTTTTTCGTGCACTATAAATATTTTAAT, the “gcPBM binding intensity (ln)” value worked out at 9.42.
Take “CACCAAAATATATGTACATATGATAAATGTGAATAT [GTGCAC_negctrl_site83]”: the “gcPBM binding intensity (ln)” value is 9.43.
Then GTCTATATATTTTAGGTGCAACGTAAATGTAAAAAT, with 9.27; and “AAAATTATCGTTATATGTACGCATCTTAATACGTAT [XGTACX_site4063]”, with 9.25; and “TAACTTTTTTTTTTTTTTTTTTAACTTTTATGTAAT [GTGCAC_negctrl_site156]”, with 9.06.
Then “TTTTACAATATTTTGTGTACTTATATTATGAGCTTA [XGTACX_site3287]”, with 9.03; and “AACTTTAAACCCTGAACACACACAAATACACCCAAA [CACACA_site7971]”, with 9.72; and “TATATATATATATATATATATATATATGTATATATG [XGTACX_negctrl_site242]”, with 8.97.
“ATAATCCACAAGCACACACACACACCCATATATATA [CACACA_site1268]”: the “gcPBM binding intensity (ln)” value was 10.2.
Then “AATATATCAAAAATGATGACATAAATATATTAATTT [GTGCAC_negctrl_site530]”, with 9.15; and TAATATCGTATATGAGTGCAATATTTTAGATTTTGA, with 8.99; and “TGCACGCACAGACACACACACAACTAAAAAATAATG [CACACA_site7250]”, with 9.72.
“AAAAAAAGGTAAAATTGTACATACGCACAAAAATAT [XGTACX_site2887]”: the “gcPBM binding intensity (ln)” value is 9.35.
Then “AAAAAAAGGAAATTTACACACACATATAATATACAT [CACACA_site3297]”, with 9.93.
With “ATTTCCTTGAATGTTGCATGCTGTATTTTAATTAAA [TGCATGCA_site280]” the figure was 9.34; with TAGATTATTATACTAGTGCAAATTATTTAAGAAAAA, 8.92.
With “AAAAAAAAAAAGTGCACACATAAAAATATGATCTAA [CACACA_site572]” the figure was 9.53; with “TAAATTTTTCTAAGTGCATGTTAATTTTTCAATTTA [TGCATGCA_site906]”, 9.03; with “TTTAAAAAGTTATGAAGTACATATATATATATATAT [XGTACX_site2188]”, 8.87.
For “ATATTATTTATAAAAGTGCAAAAATCACTTCTTTTA [GTGCAC_site9656]”, the “gcPBM binding intensity (ln)” value amounted to 8.86.
On to “AGATGAGAGATATATACACACAATAATACCTATTTA [CACACA_site6542]”, for which the “gcPBM binding intensity (ln)” value stood at 9.71.
With “AATAAATTCATGAATTGTACGTAATGATAACATGAA [XGTACX_site2591]” the figure was 9.38.
For the sequence “TTTTTATTCCAGTATTCACACACGAATAACCACATA [CACACA_site1897]”, the “gcPBM binding intensity (ln)” value was found to be 9.46.
On to “ATTTTCTTTTTTAAACGTACACATATTAAATATATA [XGTACX_site7773]”, for which the “gcPBM binding intensity (ln)” value stood at 9.23.
As for “TTATAACTTTTCACAAGTACATATATATATGTATAA [XGTACX_site2306]”, the “gcPBM binding intensity (ln)” value worked out at 8.97.
With “ATATATATGTTTTTATGTACATATTTTTCTCCTTCA [XGTACX_site5899]”, the “gcPBM binding intensity (ln)” value stood at 9.36.
On to “TTTGGAAAGCGTGATTTTTGACAAACACAAAAAAAA [CACACA_negctrl_site651]”, for which the “gcPBM binding intensity (ln)” value was determined as 8.82.
Then “ATGTGTATACTAAGAACACACAAGTTACTTGGTGTT [CACACA_site6864]”, with 9.41; and “TATTTAAAAGATGAAAGTACACATTTAATTACATTT [XGTACX_site3781]”, with 9.08; and “TATATTTAACATACTTTTTTTTTTTTTTTTTTTTTT [CACACA_negctrl_site938]”, with 9.01.
Then TACATATATCTATGTGTGCACTTATTTCCGGACAAA, with 9.3; and “TAATTAGCATAATACACATGCATACATTTATATATA [TGCATGCA_site542]”, with 9.2; and “AGTCTTTTACATTGCACACACATTTCTTTCCTTTTG [CACACA_site2988]”, with 10.1.
Take “AAAAAAAAAAAACATACACACAAGAACAAAATATGA [CACACA_site3002]”: the “gcPBM binding intensity (ln)” value came to 10.
Turning to TACAATATTTCGAGCTTGCACTTTTATTAAGTAAAT, the “gcPBM binding intensity (ln)” value was 9.01.
For the sequence “TATCTGTATTTGTATACACACAAATGTATTTATTTA [CACACA_site4830]”, the “gcPBM binding intensity (ln)” value is 9.48.
On to “TATACAGACAGACACACACACATATATAAATATGTA [CACACA_site6912]”, for which the “gcPBM binding intensity (ln)” value was 9.92.
With “ATTATTATTTTTAACTGTACATAGATATAGATATCC [XGTACX_site8714]” the figure was 9.13; with “TAAGAAAAATATATATGTACACATATATATATATAT [XGTACX_site8542]”, 9.
With “TGTATGTTATATACAACACACAAAAAAAAACAAGTT [CACACA_site301]” the figure was 9.55.
With “AACTTTTATACGGATACACACAAAAAAAAATAAAAA [CACACA_site6547]” the figure was 9.56; with “TGGGAACAATATATTTGTACTTAAATAAATAAAAAA [XGTACX_site6762]”, 9.04; with “GAACAAAATGATAGAAGTACAAATATTTATTTTGTT [XGTACX_site7146]”, 9.33.
As to “AAAGAGAAACAAAATTGTACATTATATTGTAGACGT [XGTACX_site976]”, the “gcPBM binding intensity (ln)” value was 9.48.
On to “TATATTTATAAGTGTACACATTATATAAATCCCTAT [CACACA_site6122]”, for which the “gcPBM binding intensity (ln)” value came to 9.2.
Regarding “ATTAAATGATTCATATGTACATAAATAAATAAATAT [XGTACX_site2249]”, the “gcPBM binding intensity (ln)” value was found to be 9.33.
Then “TATTAATATTTACACACATGCGCACACATAAATAAA [TGCATGCA_site609]”, with 9.74; and “TTTCTTTTTAAAGTGTATTAAAATTGAATAAAAAGA [XGTACX_negctrl_site408]”, with 8.82; and “TTTTTTTTTTTTGTCACACACCTTCATAAGAAAAAA [CACACA_site4779]”, with 9.05.
With “ATGAAAAAACATAATTGTACAAAAGTTGGATTCGAT [XGTACX_site7732]” the figure was 9.67; with “GTACAGATATTGTACATACACACCTATATAAATATC [CACACA_site5739]”, 9.44; with “TAAATCCGCAGGCACACACACATATTAAGAAAAAAA [CACACA_site6061]”, 9.74.
With “ATCATCACATAAGAAAATAGATAAAAAAAAAAAAAT [XGTACX_negctrl_site589]” the figure was 9.19.
Regarding “TTTGAATTTTTATATACACACATTATTATATTATAT [CACACA_site1593]”, the “gcPBM binding intensity (ln)” value is 9.53.
As to “ATCTATGGAGCTTATACACACTTTTATATTTTAACA [CACACA_site5994]”, the “gcPBM binding intensity (ln)” value came to 9.45.
Turning to “TATTTATTTGTGGGGTGTACGAAATTTTTTTTTTTT [XGTACX_site5091]”, the “gcPBM binding intensity (ln)” value was found to be 10.
Consider “ATAGGTGAATACTAATATAAATTCAAGAGGGAAAAG [CACACA_negctrl_site720]”, for which the “gcPBM binding intensity (ln)” value is 9.44.
Turning to “TTTACATTAAATCACGCACACAAAAAAAAAAAAAAA [CACACA_site2418]”, the “gcPBM binding intensity (ln)” value was determined as 9.2.
For the sequence “TATATATATATAATGTGTACATACTAAATAGAGGAC [XGTACX_site4153]”, the “gcPBM binding intensity (ln)” value amounted to 9.84.
Take “GAAATGTATAAATCCATACACACATAAATTTTAATA [CACACA_site2364]”: the “gcPBM binding intensity (ln)” value turned out to be 9.47.
Consider “TAAATATAAAAATGCACACACACAAAAAAAAAAAAA [CACACA_site895]”, for which the “gcPBM binding intensity (ln)” value was determined as 10.
With “AAAAAAATCTATATTACACACATATATACCTATATA [CACACA_site7464]” the figure was 9.44; with “TACATTGTATACATATGTACACATATATATATATAT [XGTACX_site6174]”, 9.42; with “TATTTATGTTATAATTGTACAATAAACAAATTTTTT [XGTACX_site5306]”, 8.94.
With “ATTATACATTTTAGATGTACATATTTTAAATTTAAT [XGTACX_site5174]” the figure was 9.03.
Then “AGAAATTAATCGAAGTGTACATATAAACATACATAT [XGTACX_site5518]”, with 9.45; and “ATATTTTGTATAATCACACACACTATTCTTAAATAG [CACACA_site7270]”, with 9.6; and “AACAAACAAACAAATATACACACTTTTGTATAAAGT [CACACA_site3509]”, with 9.77.
As for “CCCACATAAAAAAATAAACACACATATGTATATATA [CACACA_site9040]”, the “gcPBM binding intensity (ln)” value amounted to 9.63.
As to “TAATCAATTCAATATTGTACGATATTTACCTTTAAA [XGTACX_site4678]”, the “gcPBM binding intensity (ln)” value came out at 9.15.
Then “AAATGGGCTTATTTATGTACTTAAATATATCTACCC [XGTACX_site3823]”, with 9.11.
With “TACATATATATATACACACATACATATATATACGCA [CACACA_site792]” the figure was 9.52; with “AACCTCGTGTAATATGCATGTTCCCTTCAAAGTTTT [TGCATGCA_site459]”, 9.34; with “TATTTCATCTTATTTTAGGAAAAACTAATATATAAG [CACACA_negctrl_site1823]”, 8.74.
Then “TATTCGTCTTTTTTCTCACACACCCTTTTTATTAAA [CACACA_site2508]”, with 9.69; and “AAATTTAGGAACATTATATATATATATATATATATA [CACACA_negctrl_site862]”, with 9.
For “TAAAAATAAAGAAAATGTACATAAATAATAATACAT [XGTACX_site2278]”, the “gcPBM binding intensity (ln)” value is 9.52.
On to “GAACATTTGAAATATGCACACATGTATAAACCTACA [CACACA_site2654]”, for which the “gcPBM binding intensity (ln)” value was determined as 9.5.
With “CAAAAAAAGGAAAAGATACACACCGTAAATTAAAAT [CACACA_site3612]” the figure was 9.81; with “AGCAGGATTAAAAAAAGTACAAGAATTAATATTTAA [XGTACX_site3413]”, 9.07; with “AATTATTATCCCCTCACACACAAAAATAAAAAGAAT [CACACA_site2885]”, 9.84.
For the sequence “ATTTTTTATTGTTATAAAAAAAAAATTAAACAATTA [CACACA_negctrl_site1077]”, the “gcPBM binding intensity (ln)” value is 8.7.
Consider “TATATCTATAATATTACACACATATATTTATATTTT [CACACA_site7595]”, for which the “gcPBM binding intensity (ln)” value turned out to be 9.48.
With “AAAGAAAATAACAAAATTTTGAAAACATCACATTCG [CACACA_negctrl_site89]” the figure was 9.44.
Then “AAATTAAAGGCATAAAAGAAAATATTTAATAAAAAA [CACACA_negctrl_site1689]”, with 9.18.
Turning to “TTTTTTTTAATTGTGATACGTATATTATTTAATGAT [CACACA_negctrl_site38]”, the “gcPBM binding intensity (ln)” value was determined as 9.26.
On to “ACCAGTTCTTAATACAAATATGTACATATATATATA [GTGCAC_negctrl_site56]”, for which the “gcPBM binding intensity (ln)” value amounted to 9.27.
Then ATATATAATAAACAGGTGCATTGTTTTATTTTGTAT, with 9.41.
